To fix the notation:
B1: glmS ribozyme (parent)
chain: AUAAAAGCGCCAGAACUACAGAAAUGUAGUUGACGAGGAGGAGGUUUAUCGAAUUUUCGGCGGAUGCCUCCAAA

Conditions in all cases: with glucosamine-6-phosphate
The variants in data set [1] derive from B1. In words: self-cleavage kobs at 40 uM GlcN6P; higher = faster cleavage; RNA array. The method, boiled down:
(§1)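 A hybridised Cy3 probe tracked barcoded ribozyme variants, transcribed in situ by E. coli RNA polymerase on sequenced MiSeq chips, at 37 °C. The variants received 40 μM to 10 mM glucosamine-6-phosphate in HEPES/KCl/Mg(OAc)2 buffer. kobs came from decay fits and kcat and KM from weighted Michaelis–Menten fits.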

Variants of B1 are the subject of data set [2]. In words: self-cleavage kobs at 10000 uM GlcN6P; higher = faster cleavage; RNA array. A digest of the protocol: as §1
Variants of B1 are the subject of data set [3]. In words: self-cleavage kobs at 640 uM GlcN6P; higher = faster cleavage; RNA array. The method, boiled down: as §1
The variants in data set [4] derive from B1. As to the kind of experiment: self-cleavage kobs at 160 uM GlcN6P; higher = faster cleavage; RNA array. The method, boiled down: as §1
Variants of B1 are the subject of data set [5]. As to the kind of experiment: self-cleavage kobs at 2500 uM GlcN6P; higher = faster cleavage; RNA array. The method, boiled down:
as §1

Variants at the background level are over-represented here. Where only a bound is given, the exact number is not on record here.

Regarding G7C G9U C50U, in the data set with glucosamine-6-phosphate [1], the “self-cleavage kobs at 40 uM GlcN6P” value is < 1e-05 s⁻¹. Further, in the data set with glucosamine-6-phosphate [2], the “self-cleavage kobs at 10000 uM GlcN6P” value is < 1e-05 s⁻¹.
Take G7A A39C A52U G60A C67U: the “self-cleavage kobs at 40 uM GlcN6P” value in the data set with glucosamine-6-phosphate [1] was < 1e-05 s⁻¹.
As for G7C C67G, the “self-cleavage kobs at 40 uM GlcN6P” value in the data set with glucosamine-6-phosphate [1] is < 1e-05 s⁻¹. Also, the “self-cleavage kobs at 640 uM GlcN6P” value with glucosamine-6-phosphate [3] was < 1e-05 s⁻¹. Also, in the data set with glucosamine-6-phosphate [4], the “self-cleavage kobs at 160 uM GlcN6P” value was < 1e-05 s⁻¹. In addition, the “self-cleavage kobs at 2500 uM GlcN6P” value with glucosamine-6-phosphate [5] was < 1e-05 s⁻¹. Besides, the “self-cleavage kobs at 10000 uM GlcN6P” value in the data set with glucosamine-6-phosphate [2] is < 1e-05 s⁻¹.
Take G7C G66A: in the data set with glucosamine-6-phosphate [1], the “self-cleavage kobs at 40 uM GlcN6P” value was < 1e-05 s⁻¹. The “self-cleavage kobs at 640 uM GlcN6P” value with glucosamine-6-phosphate [3] was < 1e-05 s⁻¹. Further, in the data set with glucosamine-6-phosphate [5], the “self-cleavage kobs at 2500 uM GlcN6P” value was < 1e-05 s⁻¹. Moreover, the “self-cleavage kobs at 10000 uM GlcN6P” value in the data set with glucosamine-6-phosphate [2] was < 1e-05 s⁻¹.
With G7U G29C C61U, the “self-cleavage kobs at 40 uM GlcN6P” value with glucosamine-6-phosphate [1] is < 1e-05 s⁻¹.
For the variant G7U G43A C67G C68U, the “self-cleavage kobs at 40 uM GlcN6P” value with glucosamine-6-phosphate [1] was < 1e-05 s⁻¹. Also, the “self-cleavage kobs at 10000 uM GlcN6P” value in the data set with glucosamine-6-phosphate [2] is < 1e-05 s⁻¹.
On to G7U G41C G51C A64U, for which the “self-cleavage kobs at 40 uM GlcN6P” value with glucosamine-6-phosphate [1] was < 1e-05 s⁻¹. In addition, the “self-cleavage kobs at 10000 uM GlcN6P” value with glucosamine-6-phosphate [2] is < 1e-05 s⁻¹.
Regarding A6U G66C, in the data set with glucosamine-6-phosphate [1], the “self-cleavage kobs at 40 uM GlcN6P” value was < 1e-05 s⁻¹. Also, in the data set with glucosamine-6-phosphate [3], the “self-cleavage kobs at 640 uM GlcN6P” value was < 1e-05 s⁻¹.
As to A6U A52U A64C C71G, the “self-cleavage kobs at 40 uM GlcN6P” value in the data set with glucosamine-6-phosphate [1] is < 1e-05 s⁻¹. Besides, the “self-cleavage kobs at 10000 uM GlcN6P” value with glucosamine-6-phosphate [2] was < 1e-05 s⁻¹.
For the variant G7U G51A U55A, the “self-cleavage kobs at 40 uM GlcN6P” value with glucosamine-6-phosphate [1] is < 1e-05 s⁻¹. For the same variant, in the data set with glucosamine-6-phosphate [4], the “self-cleavage kobs at 160 uM GlcN6P” value was < 1e-05 s⁻¹. Besides, in the data set with glucosamine-6-phosphate [5], the “self-cleavage kobs at 2500 uM GlcN6P” value is < 1e-05 s⁻¹. Also, the “self-cleavage kobs at 10000 uM GlcN6P” value with glucosamine-6-phosphate [2] was < 1e-05 s⁻¹.
Take G7U C58A: the “self-cleavage kobs at 40 uM GlcN6P” value with glucosamine-6-phosphate [1] is < 1e-05 s⁻¹. Moreover, the “self-cleavage kobs at 640 uM GlcN6P” value with glucosamine-6-phosphate [3] was < 1e-05 s⁻¹. Also, the “self-cleavage kobs at 2500 uM GlcN6P” value in the data set with glucosamine-6-phosphate [5] is < 1e-05 s⁻¹. Also, the “self-cleavage kobs at 10000 uM GlcN6P” value with glucosamine-6-phosphate [2] was < 1e-05 s⁻¹.
As to G7U C58U, the “self-cleavage kobs at 40 uM GlcN6P” value with glucosamine-6-phosphate [1] is < 1e-05 s⁻¹. Moreover, the “self-cleavage kobs at 640 uM GlcN6P” value with glucosamine-6-phosphate [3] is < 1e-05 s⁻¹. Besides, the “self-cleavage kobs at 2500 uM GlcN6P” value with glucosamine-6-phosphate [5] was < 1e-05 s⁻¹. Moreover, the “self-cleavage kobs at 10000 uM GlcN6P” value with glucosamine-6-phosphate [2] was < 1e-05 s⁻¹.
In the case of G7C U49G, the “self-cleavage kobs at 40 uM GlcN6P” value with glucosamine-6-phosphate [1] is < 1e-05 s⁻¹. Besides, the “self-cleavage kobs at 160 uM GlcN6P” value in the data set with glucosamine-6-phosphate [4] was < 1e-05 s⁻¹.
With G7U G66A C70U, the “self-cleavage kobs at 40 uM GlcN6P” value with glucosamine-6-phosphate [1] is < 1e-05 s⁻¹. In addition, the “self-cleavage kobs at 10000 uM GlcN6P” value with glucosamine-6-phosphate [2] is < 1e-05 s⁻¹.
For G7A A14U, the “self-cleavage kobs at 40 uM GlcN6P” value in the data set with glucosamine-6-phosphate [1] is < 1e-05 s⁻¹. For the same variant, the “self-cleavage kobs at 640 uM GlcN6P” value in the data set with glucosamine-6-phosphate [3] was < 1e-05 s⁻¹. The “self-cleavage kobs at 160 uM GlcN6P” value in the data set with glucosamine-6-phosphate [4] is < 1e-05 s⁻¹.
Turning to G7C A42G U56G, the “self-cleavage kobs at 40 uM GlcN6P” value in the data set with glucosamine-6-phosphate [1] was < 1e-05 s⁻¹. In addition, the “self-cleavage kobs at 10000 uM GlcN6P” value in the data set with glucosamine-6-phosphate [2] was < 1e-05 s⁻¹.
As to A6U C10G G29A G38C G44U C68U, the “self-cleavage kobs at 40 uM GlcN6P” value with glucosamine-6-phosphate [1] was < 1e-05 s⁻¹. Besides, the “self-cleavage kobs at 10000 uM GlcN6P” value with glucosamine-6-phosphate [2] is < 1e-05 s⁻¹.
As to A6U U57A G59A G60A, the “self-cleavage kobs at 40 uM GlcN6P” value in the data set with glucosamine-6-phosphate [1] is < 1e-05 s⁻¹.
G7U C11G G41U G44U: the “self-cleavage kobs at 40 uM GlcN6P” value with glucosamine-6-phosphate [1] was < 1e-05 s⁻¹. Moreover, in the data set with glucosamine-6-phosphate [2], the “self-cleavage kobs at 10000 uM GlcN6P” value is < 1e-05 s⁻¹.
As to G7U C61G, the “self-cleavage kobs at 40 uM GlcN6P” value with glucosamine-6-phosphate [1] is < 1e-05 s⁻¹. The “self-cleavage kobs at 640 uM GlcN6P” value in the data set with glucosamine-6-phosphate [3] was < 1e-05 s⁻¹. In addition, the “self-cleavage kobs at 160 uM GlcN6P” value with glucosamine-6-phosphate [4] is < 1e-05 s⁻¹. For the same variant, the “self-cleavage kobs at 2500 uM GlcN6P” value with glucosamine-6-phosphate [5] was < 1e-05 s⁻¹.
Regarding G7A G37C A42U, in the data set with glucosamine-6-phosphate [1], the “self-cleavage kobs at 40 uM GlcN6P” value is < 1e-05 s⁻¹. Moreover, in the data set with glucosamine-6-phosphate [3], the “self-cleavage kobs at 640 uM GlcN6P” value is < 1e-05 s⁻¹. For the same variant, the “self-cleavage kobs at 2500 uM GlcN6P” value with glucosamine-6-phosphate [5] was < 1e-05 s⁻¹. Besides, the “self-cleavage kobs at 10000 uM GlcN6P” value with glucosamine-6-phosphate [2] is < 1e-05 s⁻¹.
For the variant G7C A36C, in the data set with glucosamine-6-phosphate [1], the “self-cleavage kobs at 40 uM GlcN6P” value was < 1e-05 s⁻¹. Moreover, the “self-cleavage kobs at 640 uM GlcN6P” value with glucosamine-6-phosphate [3] was < 1e-05 s⁻¹. Moreover, the “self-cleavage kobs at 160 uM GlcN6P” value with glucosamine-6-phosphate [4] was < 1e-05 s⁻¹. Besides, the “self-cleavage kobs at 2500 uM GlcN6P” value with glucosamine-6-phosphate [5] was < 1e-05 s⁻¹. The “self-cleavage kobs at 10000 uM GlcN6P” value with glucosamine-6-phosphate [2] was < 1e-05 s⁻¹.
Turning to G7C A36G, in the data set with glucosamine-6-phosphate [1], the “self-cleavage kobs at 40 uM GlcN6P” value was < 1e-05 s⁻¹. Further, the “self-cleavage kobs at 640 uM GlcN6P” value with glucosamine-6-phosphate [3] is < 1e-05 s⁻¹. Also, the “self-cleavage kobs at 160 uM GlcN6P” value with glucosamine-6-phosphate [4] is < 1e-05 s⁻¹. The “self-cleavage kobs at 10000 uM GlcN6P” value with glucosamine-6-phosphate [2] is < 1e-05 s⁻¹.
For A6U C8G C16U U55A, in the data set with glucosamine-6-phosphate [1], the “self-cleavage kobs at 40 uM GlcN6P” value was < 1e-05 s⁻¹.

These data come from the supplement of paper PMC7125110.
